According to a collection of fitness landscapes (doi:10.1016/j.celrep.2020.107928):
Over roughly 81,000 sequences, “one-hybrid fitness for binding NBS DNA” has its median near -0.1; the highest 2% begin near 0.36. This is one part of the list.

B1: Caulobacter ParB omega fusion; a variant is named by its letters at X, in order, B8GW30 (parent)
chain: MESVVVGEPGMSEGRRGLGRGLSALLGEVDAAPAQAPGEQLGGSREAPIEILQRNPDQPRRTFREEDLEDLSNSIREKGVLQPILVRPSPDTAGEYQIVAGERAWRAAQRAGLKTVPIMVRELDDLAVLEIGIIENVQRADLNVLEEALSYKVLMEKFERTQENIAQTIGKSXSHVANXMRLLXLPDEVQSYLVSGELTAXHARAIAAAADPVALAKQIIEGGLSVRETEALARKAPNLSAGKSKGGRPPRVKDTDTQALESDLSSVLGLDVSIDHRGSTGTLTITYATLEQLDDLCNRLTRGI

Variants of: B1
Test: one-hybrid fitness for binding NBS DNA (the Noc-binding site; scaled: cognate 1, non-cognate 0); higher = stronger binding
Conditions: with NBS DNA site
Procedure, shortened: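 Fitness here means the log change in variant-to-wild-type read ratio between plasmids sequenced before and after selection. That scale was set so cognate equals 1 and non-cognate equals 0. The selection was a bacterial one-hybrid screen of Caulobacter ParB libraries, four specificity codons randomised, in E. coli USO carrying a HIS3 reporter with the site 19 bp from the promoter, grown 48 hours at 37°C on M9-minus-histidine with 0.1 mM IPTG and 5 mM 3-AT.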

one-hybrid fitness for binding NBS DNA, 0.647:
QMHR

one-hybrid fitness for binding NBS DNA, 0.396:
RLTS

one-hybrid fitness for binding NBS DNA, 0.274:
KMKL

one-hybrid fitness for binding NBS DNA, 0.605:
RRVS

one-hybrid fitness for binding NBS DNA, 0.324:
QMER

one-hybrid fitness for binding NBS DNA, ≤ 0.2:
NVQV
KATH
FYQV
YNGG
KYAD
MNRC
KVTF
REYV
QVVI
FRKL
KHHS
SAEG
PLNW
DFHS
HKGR
PQAV
HMFC
WTYT
NRIC
QNSA
PDCL
ACSS
YILG
MTRT
YMDS
LKQM
EGDT
KSLW
MPRA
VSTA
QLVP
KGLS
TNFS
AHAT
YGTS
TGRA
CRTQ
MTPR
IITS
DMHS
TGQV
VAHC
QIHY
ARHY
NMAG
YELI
SVED
GWPF
KHSY
RLTH
AFKR
HEGL
GQSN
WYKG
DSYS
SRMK
SISY
DILC
NTMI
RICD
YSEG
HQSW
SDMD
RSWH
VHLN
LFIY
TRLM
SISL
TQNR
NPKL
RFND
SIWG
PARF
LVFF
HKSC
TPIM
GPVM
KTVG
ERES
QNDK
RGQM
TLKM
YEPS
SSYW
MNNS
HTRH
YVHS
TGSR
ADKT
AISG
NHRL
RQGM
NATC
PEAV
MPVR
CSMS
RWYL
TCGF
LHPW
TTRS
ETDI
HVIP
NGKF
AVAD
YHYC
WTMC
HIPQ
VFAT
TCDT
TSLD
QKYI
VDYF
TKEM
RVQA
HIMR
WKIG
YKQR
WASS
GRNL
TRES
SAMG
IFLT
DFQV
RFIF
SGTD
LEPF
HTWL
TKCA
QWVD
PGCL
VSQT
SIAN
SKLK
CAYS
RTPF
APVA
CHTM
TQAQ
MGMA
VVGI
WDTA
NWNG
VRQG
RERS
KDLL
FYSG
FYHC
QIQF
WAKV
RFKY
AWLF
SEVT
HRKK
VYRW
IHYT
HNRE
PKPK
QPIS
HHLC
PYMG
VLKK
KHCR
VNLK
QDLP
EDCR
PPET
ANKK
NAQS
HDST
IGMD
HPLM
EIYS
LHAT
QMWP
YDGM
VTKP
PKRE
PGAD
VDTF
TSLA
AAIY
LKPY
QLEH
FSTA
MAPP
MFTT
SFRT

one-hybrid fitness for binding NBS DNA, 0.672:
QQGR

one-hybrid fitness for binding NBS DNA, 0.402:
RMKH

one-hybrid fitness for binding NBS DNA, 0.298:
RCNA
